# Source: the supplement of paper PMC12217912
# The list shows a part of the results. The full chains were built here from the parent and the listed change. Values near 0.05 are background.
# B1: TEV protease; numbered along this chain (parent)
# chain: MGESLFKGPRDYNPISSSICHLTNESDGHTTSLYGIGFGPFIITNKHLFRRNNGTLVVQSLHGVFKVKDTTTLQQHLVDGRDMIIIRMPKDFPPFPQKLKFREPQREERICLVTTNFQTKSMSSMVSDTSCTFPSGDGIFWKHWIQTKDGQCGSPLVSTRDGFIVGIHSASNFTNTNNYFTSVPKNFMELLTNQEAQQWVSGWRLNADSVLWGGHKVFMVKPEEPFQPVKEATQL
# Variants of: B1
# Experiment: raw area under fraction-flipped curve 0-4 h after induction (AUC4h, not background-subtracted), DNA-recorder readout of cleavage of the substrate (dimensionless); higher = more cleavage of the substrate by the protease variant
# Conditions: temperature: 34 °C; time window: 0-4 h after rhamnose induction
# Method: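 In vivo DNA recorder in E. coli TOP10(DE3) ΔrhaA at 34 °C. Each TEVp single-site mutant (parent TEVp 0) is paired with a single-site variant of the 7-mer TEVs (canonical ENLYFQ|S). The substrate sits between flexible linkers in a Bxb1-sfGFP-TEVs-SsrA fusion, so cleavage stabilises Bxb1 and speeds flipping of a recombination array, read by NGS. The value is the raw area under the fraction-flipped curve over 0-4 h after rhamnose induction (AUC4h), with ≥20 reads per time point. It is not background-subtracted; inactive controls average about 0.047.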
# 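Note: Bxb1 expression induced with 0.2% (w/v) L-rhamnose at OD600 near 0.5, cultures sampled hourly, flipped fraction per protease–substrate barcode pair counted by paired-end Illumina sequencing.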
Variant,area with substrate ENAYFQS,area with substrate ENCYFQS,area with substrate ENDYFQS,area with substrate ENEYFQS,area with substrate ENFYFQS,area with substrate ENGYFQS,area with substrate ENHYFQS,area with substrate ENIYFQS,area with substrate ENKYFQS,area with substrate ENMYFQS,area with substrate ENNYFQS,area with substrate ENPYFQS,area with substrate ENQYFQS,area with substrate ENRYFQS,area with substrate ENSYFQS,area with substrate ENTYFQS,area with substrate ENVYFQS,area with substrate ENWYFQS,area with substrate ENYYFQS
P94G,0.0808,0.0644,0.0556,0.0606,0.0633,0.0587,0.0556,0.171,0.0544,0.119,0.0633,0.0564,0.0684,0.0637,0.0608,0.0626,0.0829,–,–
V78C,0.0574,0.0622,0.0571,0.0602,0.0649,–,0.0609,0.11,–,–,0.0803,0.0662,0.0549,0.0556,0.063,0.0636,0.0608,0.06,–
V78S,0.0515,–,0.0595,0.0593,0.0544,–,0.0596,0.077,–,–,–,0.043,0.0538,0.0437,0.0611,0.0563,0.0677,0.0542,0.0583
C111Y,0.0777,0.0603,0.0558,–,0.0396,0.0879,0.068,–,0.0704,0.0929,0.0657,0.0568,0.0666,–,0.0684,0.0628,0.0843,0.0684,–
C111L,0.0529,0.0725,0.0633,0.0601,0.0659,0.0528,–,0.124,–,0.0807,0.0585,0.0729,0.0526,–,0.0671,–,–,–,0.103
C111T,0.0606,0.075,0.0653,0.0661,–,0.0507,–,0.137,0.0343,–,0.0683,0.0557,0.08,–,0.0589,0.0763,0.0893,0.0503,0.0577
R106F,0.0633,0.0506,0.0625,0.0707,0.0752,–,0.0673,0.134,–,0.0691,0.0502,0.0598,0.0584,0.0515,0.0683,0.0675,–,–,–
S124W,0.0646,0.057,0.0319,0.0759,0.0589,0.0634,0.0359,0.117,0.0743,–,0.0615,0.0583,–,–,0.0718,–,0.0796,–,–
V113P,0.0641,0.0623,0.059,0.06,0.051,0.0504,0.0616,–,0.0769,0.0639,0.065,0.0536,0.0521,0.0532,0.0654,0.0429,0.0542,–,–
M125T,0.0587,0.0652,0.0641,0.0573,0.0636,0.0566,0.0651,0.102,0.0634,0.0689,0.068,0.0581,0.0616,0.0539,0.0688,0.0603,0.0714,0.0656,–
M125N,0.0641,0.0466,0.0671,0.0666,0.0662,0.074,0.0661,–,0.0626,0.0787,0.0597,0.0578,0.0571,0.0585,0.0624,0.0611,0.0886,–,0.0545
M125V,0.0681,0.0697,0.0647,0.0648,–,0.0687,0.0575,–,–,–,0.0605,0.0626,0.0634,0.0704,–,–,0.0845,–,0.0803
